Assay results as given in patent US20130316901A1 (priority 2011, published 2013).
Read-outs that look alike come from different tables or passages of the source.

How the values were obtained:
Alternaria solani = experiment: Alternaria test (tomatoes)/preventive; assay type: in vivo; details: preventive spray, evaluated 3 days after inoculation
Description: Alternaria Test (Tomatoes)/Preventive
The test is evaluated 3 days after the inoculation.

Venturia inaequalis = test system: Venturia inaequalis
Description: • Solvent: 24.5 parts by weight of acetone • 24.5 parts by weight of dimethylacetamide • Emulsifier: 1 part by weight of alkylaryl polyglycol ether
To produce a suitable preparation of active compound, 1 part by weight of active compound is mixed with the to stated amounts of solvent and emulsifier, and the concentrate is diluted with water to the desired concentration.
To test for preventive activity, young plants are sprayed with the preparation of active compound at the stated rate of application. After the spray coating has dried on, the plants are inoculated with an aqueous conidia suspension of the causal agent of apple scab (Venturia inaequalis) and then remain for 1 day in an incubation cabinet at approximately 20° C. and a relative atmospheric humidity of 100%.
The plants are then placed in a greenhouse at approximately 21° C. and a relative atmospheric humidity of approximately 90%.
The test is evaluated 10 days after the inoculation. 0% means an efficacy which corresponds to that of the untreated control, while an efficacy of 100% means that no disease is observed.

Cn1c(=O)c2sc3c(=O)n(C)c(=O)c3sc2c1=O [(I-1), 2,6-dimethyl-1H,5H-[1,4]dithiino[2,3-c:5,6-c′]dipyrrole-1,3,5,7(2H,6H)-tetrone]
Efficacy in % found (Alternaria solani; 50 ppm a.i.): 29%
Efficacy in % found (Venturia inaequalis; in vivo): 36%

C[N+](C)(C)CCCl [C-10.2, chlormequat-chloride]
Efficacy in % found (Venturia inaequalis; apples, preventive spray, 250 ppm a.i., evaluated 10 days after inoculation): 21%

CCOC(=O)C1CC(=O)C(=C(O)C2CC2)C(=O)C1 (centres unmarked) [C-12.27, trinexapac-ethyl]
Efficacy in % found (Alternaria solani; 500 ppm a.i.): 65%
Efficacy in % found (Venturia inaequalis; in vivo): 0%
